PubChem BioAssay AID463173 (ICCB-Longwood Screening Facility, Harvard Medical School, 2010)
In all, about 52,000 compounds went through this assay and about 4,300 (8.3%) were called active. Cut-off read from the data, not from the text of the source: active = survival mostly below about 52% (no sharp cut-off); inactive = mostly above about 56%. This is one part of the list.

test system: DeltatarO mutant; assay: S. aureus survival, RN4220 and DeltatarO strains – OD600, teichoic acid synthesis inhibitors, primary screen (AID 463173); settings: S. aureus RN4220 wild type/DeltatarO growth, OD600, 18 h, hits give low values, screened at 18.75 µg/mL (by protocol)

Row | SMILES | survival
1 | O=C(O)c1cc(-c2ccc(C(F)(F)F)cc2)nc2n[nH]c(-c3ccccc3)c12 | inactive: 83%
2 | CC(=O)c1ccc(NC(=O)Cn2cc3c(n2)CCCC3)cc1 | inactive: 83%
3 | CCc1ccc(S(=O)(=O)c2cn(CC)c3cc(N4CCOCC4)c(F)cc3c2=O)cc1 | inactive: 88%
4 | CCOc1ccc(CN2CCN(c3ncnc4sc5c(c34)CC(C)CC5)CC2)cc1 (stereo not drawn) | inactive: 60%
5 | CCN(CC)CCN1C(=O)C2C3c4ccccc4C(c4ccccc43)C2C1=O (stereo not drawn) | inactive: 96%
6 | COc1ccc(Cl)cc1NC(=O)c1ccc2c(c1)CCCN2S(C)(=O)=O | inactive: 66%
7 | COc1ccccc1C(=O)Nc1nnc(S(=O)(=O)N(C)c2ccc(Cl)cc2)s1 | inactive: 95%
8 | Cc1cccc(C)c1NC(=O)Cn1c(=O)n(CCC(=O)NCc2ccccc2Cl)c(=O)c2sccc21 | inactive: 63%
9 | COc1ccc(OC)c(CCNC(=O)c2c(C)oc3ncn(C)c(=O)c23)c1 | inactive: 76%
10 | CCCCn1c(SCC(=O)N2c3ccccc3Sc3ccccc32)nc2c1c(=O)n(C)c(=O)n2C | inactive: 68%
11 | CCOc1ccc(S(=O)(=O)N(CC(=O)NCCc2ccc(OC)c(OC)c2)c2ccccc2)cc1 | inactive: 49%
12 | Cc1ccccc1Cn1c(CN2CCC(C(=O)NCCN(C)C)CC2)cc2ccccc21 | inactive: 112%
13 | Cc1ccccc1NC(=O)CN1C(=O)C(C)(C)c2ccccc21 | inactive: 80%
14 | COc1cccc(NC(=O)c2cc3c(=O)n(C)c4ccccc4c3n2C)c1 | inactive: 110%
15 | O=C(c1cnn2c1NC(c1ccc(Br)cc1)CC2C(F)(F)F)N1CCCC1 (stereo not drawn) | inactive: 71%
16 | Cc1cc(C)c(S(=O)(=O)NCCc2csc3nc(-c4ccc(Cl)cc4)nn23)c(C)c1 | inactive: 65%
17 | CC(=O)c1ccc(N2CCN(C(=O)C3CCN(S(=O)(=O)c4c(C)noc4/C=C/c4ccccc4F)CC3)CC2)cc1 | inactive: 71%
18 | Cc1ccc(C)c(N2CCN(c3nc4ccccc4c(=O)n3-c3ccccc3)CC2)c1 | inactive: 70%
19 | O=c1c2c3c(sc2n(Cc2ccc(F)cc2Cl)c(=O)n1-c1ccc(Cl)cc1)CCC3 | inactive: 146%
20 | Cc1ccc(NC(=O)c2sc3ncnc(N(C)C4CCCCC4)c3c2C)cc1 | inactive: 144%
21 | C[N+](C)(C)CC(O)COc1ccccc1 (stereo not drawn) | inactive: 82%
22 | CCOC(=O)COc1nc(C)c(Br)c(OC)n1 | inactive: 81%

Row | SMILES | survival
23 | Cc1ccc(C(=O)Nc2ccc3[nH]c(=O)c(=O)[nH]c3c2)cc1 | inactive: 95%
24 | CC(C)Oc1ccc(CNC(=O)Cn2c(-c3cccs3)cc3ccccc32)cc1 | inactive: 74%
25 | COc1cc(NC(=O)CC2C(=O)N(c3cccc(C)c3)C(=O)N2Cc2cccs2)cc(OC)c1 (stereo not drawn) | inactive: 66%
26 | Cc1ccc(C2CCN(C(=O)Nc3ccc(C)c(C)c3)C2)cc1 (stereo not drawn) | inactive: 102%
27 | CC1CCC(CC(=O)O)(CC(=O)O)CC1 | inactive: 85%
28 | CCS(=O)(=O)N1CCc2cc(C(=O)NCCc3ccc(OC)c(OC)c3)ccc21 | inactive: 69%
29 | COc1cccc(C(=O)Nc2ccc(S(=O)(=O)N(Cc3ccccc3)c3ccccc3)cc2)c1 | inactive: 82%
30 | O=C(Nc1ccc(Cl)c(-c2nc3cc(Cl)ccc3o2)c1)c1cc2ccccc2o1 | inactive: 70%
31 | Oc1c(Cl)cc(Cl)cc1CNn1cnnc1 | inactive: 101%
32 | CCOC(=O)c1c(S(=O)(=O)NCC(=O)N(C)c2ccc(C)cc2)c(C)n(C)c1C | inactive: 91%
33 | Cc1ccccc1NS(=O)(=O)c1nnc(NC(=O)c2ccco2)s1 | inactive: 88%
34 | COc1ccc(CCC(=O)NCCc2csc(-c3cccc(C)c3)n2)cc1 | inactive: 87%
35 | Cc1ccccc1-c1nc(SCC(=O)N(C)c2ccccc2)c2c(=O)n(C)c(=O)n(C)c2n1 | inactive: 67%
36 | Cc1ccccc1OCc1ccc(-c2nc(C#N)c(N3CCC(C(N)=O)CC3)o2)o1 | active: 38%
37 | CCOc1ccc2cc(-c3nnc(Nc4ccc(C)cc4)s3)c(=O)oc2c1 | inactive: 80%
38 | COC(=O)CSc1nc2cc(OC)c(OC)cc2cc1C | inactive: 95%
39 | COc1ccc(NC(=O)c2ccc(NC(=O)CCS(=O)(=O)c3cccs3)cc2)cc1 | inactive: 55%
40 | CCOc1ccc2c(c1)c(=O)c(S(=O)(=O)c1ccc(Cl)cc1)cn2Cc1ccccc1C | inactive: 73%
41 | CCN(CCCNC(=O)Cn1ncc2c([nH]c3ccc(C)cc32)c1=O)Cc1ccccc1 | inactive: 79%
42 | COc1ccc(NC(=O)C(=O)NCc2ccco2)cc1 | inactive: 55%
43 | CC(=O)NNc1nc(Cl)nc(N(C)C)n1 | inactive: 81%
44 | Clc1cccc(CSc2nnc(C3CCNCC3)o2)c1 | inactive: 104%

Row | SMILES | survival
45 | CC(C)n1c(=N)c(C(=O)NC2CCCCC2)cc2c(=O)n3ccccc3nc21 | inactive: 73%
46 | CCc1ccccc1N1C(=O)N(CC(=O)c2ccc(OC)cc2)c2ccccc2S1(=O)=O | inactive: 79%
47 | CCc1cccc(NC(=O)Cn2nc3c4cc(F)ccc4n(Cc4cccc(C)c4)cc-3c2=O)c1 | inactive: 84%
48 | O=C(O)c1ccccc1SC1CC(=O)N(Cc2ccccc2)C1=O (stereo not drawn) | inactive: 81%
49 | COC(=O)CCN(C(=O)C1CCN(S(=O)(=O)c2c(C)noc2/C=C/c2ccccc2F)CC1)c1ccccc1 | inactive: 113%
50 | CC(C)Oc1ccc(C(=O)Nc2nonc2-c2ccc(OC(C)C)cc2)cc1 | inactive: 75%
51 | CCCNC(=O)c1cnc2c(-c3ccc(OCC)c(OCC)c3)c(C)nn2c1-c1ccccc1 | inactive: 92%
52 | CCOC(=O)c1cc(C)n(CC2CCC(C(=O)Nc3cc(OC)cc(OC)c3)CC2)c1C (stereo not drawn) | inactive: 144%
53 | COc1cc(NC(=O)CC(c2cccs2)N2Cc3ccccc3C2=O)cc(OC)c1OC (stereo not drawn) | inactive: 49%
54 | O=c1[nH]c2cc3c(cc2cc1CN(Cc1ccco1)S(=O)(=O)c1cccc(C(F)(F)F)c1)OCO3 | inactive: 80%
55 | COc1ccc(-c2nc(SCC(=O)Nc3ccc4c(c3)OCCO4)c(-c3ccccc3)[nH]2)cc1 | inactive: 55%
56 | COC(=O)CC1Oc2ccc(C)cc2-n2cc(-c3ccc(C)cc3)nc21 (stereo not drawn) | active: 37%
57 | Cc1ccc(CSc2oc(-c3cccs3)nc2S(=O)(=O)c2ccc(C)cc2)cc1 | inactive: 135%
58 | Cc1cc(N2CCC3CCCC(C2)N3Cc2ccccc2)n2c(n1)nc1ccccc12 (stereo not drawn) | inactive: 83%
59 | COC(=O)c1ccccc1NC(=O)C1=C(C)C(=O)OC12CCC(C)CC2 (stereo not drawn) | active: -23%
60 | Cc1ccc2oc(C(=O)Nc3sc4c(c3C(=O)NCc3cccnc3)CCCC4)cc(=O)c2c1 | inactive: 63%
61 | CCOC(=O)/C(C#N)=C/c1ccc(-c2ccc(C)cc2)o1 | inactive: 98%
62 | Cc1ccc(-n2nc3c(=O)n(CCCC(=O)NC(C)c4ccccc4)nc(C)c3c2C)cc1 (stereo not drawn) | inactive: 67%
63 | COc1ccccc1Cn1cc(C(=O)c2ccc(C)cc2)c(=O)c2cc(F)cc(F)c21 | inactive: 97%
64 | CCCN(CCC)C(=O)Cn1c(=O)n(Cc2ccc(C(=O)NCCc3ccc(Cl)cc3)cc2)c(=O)c2ccccc21 | inactive: 106%
65 | CC(=O)c1ccc(NC(=O)Cn2nc(C(F)(F)F)c3c2CCCC3)cc1 | inactive: 64%
66 | COc1ccc(OC)c(-c2noc(N3CCN(c4cccc(C)c4C)CC3)n2)c1 | inactive: 88%

Row | SMILES | survival
67 | CCSc1nn(CC(=O)Nc2cccc(Cl)c2)c(N)c1S(=O)(=O)c1ccc(OC)cc1 | inactive: 91%
68 | COCCCNC(=O)CCCn1c(=O)c2cccn2c2ccccc21 | inactive: 76%
69 | COc1ccccc1CNC(=O)CCC1N=C2c3ccccc3N=C(SCc3ccc(Cl)cc3)N2C1=O (stereo not drawn) | active: 32%
70 | O=C1CCCc2cc(S(=O)(=O)NCC3CCC(C(=O)NCc4ccc(F)cc4)CC3)ccc2N1 (stereo not drawn) | inactive: 67%
71 | COc1ccccc1N1CCN(S(=O)(=O)c2cccc3nsnc23)CC1 | inactive: 88%
72 | CCOC(=O)c1c(C)c(-c2ccccc2)n(CC(=O)Nc2cc(C)cc(C)c2)c1C | inactive: 80%
73 | Cc1ccc(N2CCN(S(=O)(=O)c3ccc(Cl)c4ccccc34)CC2)c(C)c1 | inactive: 76%
74 | O=C(Nc1cccc(C(F)(F)F)c1)c1cccc(C(=O)Nc2cccc(C(F)(F)F)c2)c1 | inactive: 84%
75 | Cc1ccc(CNC(=O)Cc2ccc(NC(=O)N3CCSc4ncccc43)cc2)cc1 | inactive: 72%
76 | CCc1ccccc1NC(=O)c1ccc2c(c1)nnn2C1CCCC1 | inactive: 109%
77 | O=C1NN(c2ccccc2)C(=O)C2C3C=CC(C4CC34)C12 (stereo not drawn) | inactive: 80%
78 | CCCNC(=O)c1ccc(Cn2c(=O)c3cccn3c3cccnc32)cc1 | inactive: 52%
79 | CCN=C1Sc2nc3ccc(OCC)cc3cc2CN1CCOC | inactive: 104%
80 | CCOc1ccccc1NC(=O)CN1C(=O)COc2ccc(S(=O)(=O)NC3CCCC3)cc21 | inactive: 74%
81 | COc1cc(Cl)c(C)cc1NC(=O)c1cnn(-c2ccc(F)cc2F)c1C1CCN(C(=O)OC(C)(C)C)CC1 | inactive: 64%
82 | COc1ccc2cc(CNc3ccc(C)cc3)c(=O)n(CC(=O)Nc3cccc(Cl)c3C)c2c1 | inactive: 80%
83 | CCOC(=O)c1cc2oc(C)cc2n1CC(=O)NC1CC1 | inactive: 86%
84 | Cc1ccc(-c2nnc(Nc3ccccc3)c3ccccc23)cc1S(=O)(=O)N1CCN(C)CC1 | inactive: 86%
85 | CCOC(=O)c1c(NC(=O)COc2ccccc2Br)sc2c1CCCCC2 | active: 40%
86 | O=C(CSc1nnc(-c2cccc(F)c2)c(-c2cccc(F)c2)n1)NC1CCCCC1 | inactive: 73%
87 | O=C(Cn1ncc2c(=O)oc3ccccc3c21)N1CCN(c2ccc(Cl)cc2)CC1 | inactive: 93%
88 | COc1ccc(-n2nc3c(N4CCC(C(=O)NCCc5ccccc5)CC4)nnc(C)c3c2C)cc1 | inactive: 85%
